Source: PubChem BioAssay AID2060895 (Molecular Pharmacology Branch, DTP, NCI, 2025)
Some entries of the source have several records that differ or are many. The other results are left out here. The source may hold further records. Values that stand side by side repeat one measurement across runs, samples, wells, individuals or studies. Marks such as [2022-09] give the month of the run.

System: PDC 899932-113-R3-J6 complex spheroid viability
Assay: Anticancer human tumor 899932-113-R3-J6-PDC patient-derived melanoma cell line growth inhibition [RAS]
Conditions: for IC50: compound alone; for viability, T/C: stronger effect = lower value
From the text: RAS pathway inhibitors in Combinations in Complex Spheroids
A high-throughput screen of multi-cell type tumor spheroids was designed to identify active combinations of RAS pathway inhibitors and targeted small molecules. Complex spheroids include a stromal component modeled by human endothelial cells (HUVEC) and fibroblasts modeled by human mesenchymal stem cells (MSCs). The concentration ranges selected for each drug and investigational agent were based upon clinically achievable concentrations if the clinical Cmax of the agent was known.
Compounds. The drugs and investigational agents: abemaciclib (NSC768073), cobimetinib (NSC768068), divarasib (GDC6063, NSC841802), docetaxel (NSC628503), GDC-1971 (RLY-1971, NSC841576), gemcitabine (NSC613327), inavolisib (NSC800729), ipatasertib (NSC767898), KB-0742 (NSC834161), MRTX-1133 (NSC836407), osimertinib (NSC779217), RMC-4630 (NSC839698), RMC-6236 (NSC851965), RMC-6291 (NSC852671), Ro-3306 (NSC812927), sapanisertib (NSC764658), SN-38 (NSC673596), staurosporine (NSC755774), SY5609 (NSC837396), and tovorafenib (DAY101, NSC766906), were obtained from the National Cancer Institute (NCI) Developmental Therapeutics Program Chemical Repository. The FDA-approved anticancer drug set is available from the NCI Developmental Therapeutics Program. […] The stock solutions were prepared in dimethyl sulfoxide (DMSO, Sigma-Aldrich, St. Louis, MO, cat. D2650) at 800-fold the tested concentration and stored at -70 degrees C prior to their use. All drugs and investigational agents were tested over a range starting from a high concentration at or near the clinical Cmax and decreasing in half-log increments. If the clinical Cmax for an agent had not been determined, the highest concentration tested was 10 microM.
Cell Culture. All cells were maintained in an incubator at 37 degrees C and 5% CO2 with 95% humidity. The PDC lines were cultured according to standard operating procedures established by the NCI PDMR. All PDCs were thawed and cultured in Matrigel-coated flasks prepared with a working solution of 1X Ham's F-12 nutrient mix, without supplementation (Invitrogen, Waltham, MA, cat. 11765054), 100 U/mL penicillin-streptomycin (Invitrogen, cat. 15140122), and 2.5% Matrigel (Corning Inc., Corning, NY, cat. 354248) for the first three passages. The 362531-283-R-J2-PDC and 782815-120-R-J1-PDC lines were cultured in 6C/Colon 1B media, which includes advanced DMEM/F-12 (Thermo Fisher Scientific, cat. 12634028), 10 mM HEPES (Thermo Fisher Scientific, cat. 15630080), 1X GlutaMAX supplement (Thermo Fisher Scientific, cat. 35050061), 0.1 mg/mL primocin (InvivoGen, San Diego, CA, cat. ant-pm-2), 10% defined fetal bovine serum, heat inactivated (HyClone Laboratories Inc., Logan, UT, cat. SH30070.03HI), 50% L-WRN conditioned media (ATCC, cat. CRL-3276), 1.25 mM N-Acetyl-L-cysteine (Sigma-Aldrich, cat. A9165), 10 mM nicotinamide (Sigma-Aldrich, cat. N0636), 1X B-27 supplement (Thermo Fisher Scientific, cat. 17504044), 1X N-2 supplement (Thermo Fisher Scientific, cat. 17502048), 50 ng/mL human EGF (Thermo Fisher Scientific, cat. PHG0311), and 10 microM Y-27632 dihydrochloride (Tocris Bioscience, cat. 1254). The K12877-001-R-J1-PDC line was cultured in 6I media, which includes all 6C/Colon 1B media plus 10 ng/mL human FGF-10 (PeproTech, cat. 100-26), 1 ng/mL human FGF-2 (PeproTech, cat. 100-18B), 1 µM prostaglandin E2 (Tocris Bioscience, cat. 2296), […] hydrocortisone (Sigma-Aldrich, cat. H4001), and […] bovine insulin (Sigma-Aldrich, cat. I6634). The K86415-001-R-J1-PDC line was cultured in 6D media, which includes all 6C/Colon 1B media components minus the L-WRN conditioned media. The 485176-168-R4-J1-PDC was cultured in PANC media, which includes all 6C/Colon 1B media plus 100 ng/mL human FGF-10 (PeproTech, cat. 100-26), 500 nM SB-431542 (Selleckchem, cat. S1067), and 10 nM gastrin (Tocris Bioscience, cat. 3006). […]
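Throughout, for viability, T/C: spheroids exposed to agents for seven days before readout; 100% = DMSO vehicle control wells.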

| Compound | IC50 | viability, T/C (compound alone 0.01 µM) | viability, T/C (compound alone 1 µM) | further results |
| --- | --- | --- | --- | --- |
| CCc1c2c(nc3ccc(O)cc13)-c1cc3c(c(=O)n1C2)COC(=O)[C@]3(O)CC | 18.9 nM, 6.15 nM [2024-08] and 20.8 nM, 37.6 nM [2024-09] |  |  |  |
| O=C(c1ccc(F)c(F)c1Nc1ccc(I)cc1F)N1CC(O)([C@@H]2CCCCN2)C1 |  | 43.6%, 24.6% [2024-08] and 50.3%, 27% [2024-09] |  |  |
| CC(C)n1nc(-c2ccc3oc(N)nc3c2)c2c(N)ncnc21 |  | 86%, 78.9% [2024-08] and 89.6%, 104% [2024-09] |  | viability, T/C (compound alone 0.1 µM): 99.7%, 42.2% [2024-08] and 43.3%, 51.5% [2024-09] |
| CC1(O)CCCC1n1c(=O)c(C(F)F)cc2cnc(NC3CCN(S(C)(=O)=O)CC3)nc21 (stereo not drawn) | 3.52 µM, 826 nM [2024-08] and 2.8 µM, 2.51 µM [2024-09] |  |  |  |
| C[C@@H](NC(=O)c1ncnc(N)c1Cl)c1ncc(C(=O)Nc2cc(C(F)(F)F)c(Cl)cn2)s1 |  |  | 140%, 155% [2024-08] and 150%, 167% [2024-09] | viability, T/C (compound alone 0.316 µM): 132%, 152% [2024-08] and 163%, 156% [2024-09] |
| CCC(CC)c1cc(NC2CCC(N)C2)n2nccc2n1 (stereo not drawn) |  |  | 78%, 59.7% [2024-08] and 86.4%, 87.7% [2024-09] |  |
